Reference: the RNAGym collection of RNA variant scans (doi:10.1073/pnas.2313332121)
Variants at the floor of the assay are shown more often than the library holds them.

B1: TPR 5TU (parent)
chain: GGAUCUUCUCGAUCUAACAAAAAAGACAAAUCUGCCACAAAGCUUGAGAGCAUCUUCGGAUGCAGAGGCGGCAGCCUUCGGUGGCGCGAUAGCGCCAACGUUCUCAACUAUGACACGCAAAACGCGUGCUCCGUUGAAUGGAGUUUAUCAUG

Variants of: B1
Assay: polymerase ribozyme fitness, log enrichment relative to wild type (log ratio); higher = more active; in vitro selection for triplet polymerase activity
Method in brief: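 Mutant libraries were PCR-built and transcribed for each subunit of a heterodimeric triplet polymerase ribozyme and selected for one round in triplicate at −7 °C, frozen, before gel excision of extended constructs and streptavidin-bead capture. Input and output libraries were Illumina-sequenced, keeping genotypes with ≥10 input reads and ≥1 read per output. Fitness is a logarithmic ratio of genotype to wild-type enrichment, in base 2, using inverse-variance-weighted replicate averages.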

Polymerase ribozyme fitness (log ratio), ≤ -4.2:
G50A U56C G92C A106C A120G
G50A U56G G83U A113U A142C
G50A U78C C95U C105G U146G
G50A U101G A106G U146C U148C
G50C A52G G58A U82A C96U G141C
G50C A52G G88U A91U U102C G133A
G50C A60C G71U C96G G152A
G50C A66C U82G G86C C114A A137C A138U
G50C A66U
G50C A89G A110G A121U
G50C A91C C99A C118A G143A
G50C A97U A98U A137G
G50C A137G U146G U148A
G50C C54G G58A A64U A66C G68U A91C
G50C C54U G81A G88C U104A C108G G141A
G50C C57U C76U G83U
G50C C72A C114U U134G U148A
G50C C75G G84C G128A
G50C C87G A121U
G50C C93G C103A G124A
G50C C93U A97C U144G
G50C C105G U146A
G50C C108U
G50C G58A U78G C108A
G50C G58C C99G
G50C G59U C72G C96U A107G
G50C G59U G86A A110G
G50C G65A G88U U90G
G50C G65U A66U C72A C118U G143C A147C
G50C G65U C79G G92C C116U
G50C G65U G88C C103A
G50C G68A G80C C93G C96A U104G G140U A142C
G50C G74C
G50C G80C
G50C G83A A121U G143U
G50C G83A C103G A119U U134G U135A
G50C U53A C54U G58A A119U G133U G141A
G50C U53C G67C A137G
G50C U53G G92A C125A C132A U146A
G50C U56A G74A C87A G88U C116U
G50C U148C
G50U A52C U56G C96A C118A G124A U139G
G50U A73U G94U U109G A113U
G50U A107C
G50U C51G C69A C123U A137G U148A
G50U C57U A60G C85U A89U A107C
G50U C57U C75A U77G C87A A97U
G50U C87A C99U U144A
G50U C87G C96U A98U A113G
G50U C93U U101G A122C G141U U151G
G50U C96G A98G C99G
G50U C99A U102C
G50U G59A G70A A73G A107U U146G
G50U G83C A115C A119U G126A G133A C149A
G50U G86A G128A C131A
G50U G94C U111C
C51A A52C C85U U127C A150U
C51A A66C G88C A106G C123U U151A
C51A A91C
C51A C63A C103G U139G G140U
C51A C72A C108G C116U C118U
C51A C75U U82G G94U C149U
C51A C93U G124A A138C A142U
C51A C95U C108U G141U U151C
C51A C96G A113G C116U G141U U148C
C51A G59A A60C G83U C95A
C51A G65U G70C C93U A107G U145G
C51A G70C U127G
C51A G74C C76G C93G C108G A110U
C51A G80C U135C
C51A G92A C105U A119U
C51A G94C A113C G141A
C51A U53A A89G C96G
C51A U55G C87U G94A G143U
C51A U56G G58C C87G G143C
C51A U61G C79U G83C G94A G100A U102G
C51G A52C G67A G74A G80U C149G
C51G A52G G86A A115U C118A G143C
C51G A52U A113U C125G
C51G A52U G84C G124A C125U G126A G141A
C51G A52U U53A A120U U151G
C51G A60C G88A G92A
C51G A73G G81A U82C A150G
C51G C57G C79A G80C A120C
C51G C76A G84C
C51G C76A G84C C87G U104C U148C
C51G C76U C96U G143C
C51G C79G
C51G C87U C95A C99A A107U U146G
C51G G67A A73U C87G C93G
C51G G74C A91U U101A U104G U130A A142U
C51G G81A G92A U102G C108U U130G C149U
C51G G86A
C51G G86A G117U C129A
C51G U56G A73G C87G G112C A115C A119U A120G G141C A150U
C51G U139A
C51U A52C C54G G80C C87A A115C U135C
C51U A52U U78A C85A A89U C105G A121C
C51U A60U G88C C105G
C51U A91U C99U U135C
C51U A106G G133U G136U
C51U C54U A91G C96U A106U U127G U135A U148A
C51U C54U G67C C76A U77C C114G
C51U C72G G94U C105A A106C U135C
C51U C75G U77C G112U A150G
C51U C75G U90A A91C C93U C114U G143C
C51U C76G C96G A121G A122U C129A C131A
C51U C85A G117U C149G
C51U C85G A89G A98U
C51U C93U G100U C123G
C51U C96A C116A A119C A142U
C51U G68U G83A G141C
C51U G70A C87U U104A U148C
C51U G83C A150C
C51U G86A G88U G141U
C51U G92C G112U
C51U U53A C85U C99G
C51U U55G G58A G86C C95G
C51U U61A C85A G100A
A52C A73G C93U U101A C129A G152C
A52C C54G C76G C85U G140C
A52C C54U G62U A98G A106G A115G
A52C C54U G83C C85U A137C
A52C C69A C72G C85G A113G C116G C118G G140A
A52C C85G A110C
A52C C103G
A52C G58C U82G G86A U134G
A52C G68C C87G A91U A107G U134G
A52C G68U A73G G86U
A52C G88C
A52C U53A A64G C85A C96U C132U A142G
A52C U55A G59U C87A A91U
A52C U56A A89U C93A G141A U145G
A52C U56A G68A C96G C99U
A52C U77C C116G U134G
A52C U77G G81A C85A U111A A150C
A52C U146G A150C
A52G A66C U90G
A52G A91U C105G
A52G A91U U101G
A52G A113G A147C
A52G A137U
A52G C54G U148G
A52G C57A U77G A120C C129A U144C
A52G C57G A60G G67A A98U A147C
A52G C63U G65A C76A G86A A120U
A52G C75G A107U G133C
A52G C75G C85G U90G
A52G C85G G100C G133U U146A
A52G C93A C95A U135G U148C
A52G G68U U144A
A52G G84A G88A A147U
A52G G88C U146G
A52G G141A C149U
A52G U53A A120C A122G A137U
A52G U53A U61A A91G C96G A97U G124A
A52G U77A C79A
A52G U77G U82C C87U
A52U C57A C63U G68A C96G C125G
A52U C76U C103G G124U G143C A147C
A52U C87U C149G
A52U C93A U101G
A52U G58A A73G C93U C129A
A52U G62C G88A A107U U134A G143U
A52U G67U G80A U135G
A52U G74A G88C C105A
A52U G84U G112A A115G A138U
